Source: the supplement of paper PMC12645437, “Orthogonal IMiD-Degron Pairs Induce Selective Protein Degradation in Cells” (ACS Chemical Biology, 2025)
The other results are listed elsewhere or left out.

What follows are sequences tested against no compound (DMSO) (assay: log2 fold change of degron read counts, EGFP-low vs EGFP+ sorted cells; higher = lower degron-EGFP level without compound (poor expression or instability)). Details: compound: DMSO control; 18 h.
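Note: jurkat cells carrying a lentiviral library of mutant zinc finger degrons fused to EGFP plus mCherry, mCherry+ cells FACS sorted, degron abundance counted by next-generation sequencing.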

Sequence | log2 fold change of degron read counts
FECEICGHPFTQKGNLLRHIKL | -2.07
FECPICGAYFTQKGNLLRHIKL | -1.21
FRCNVCGAVFTQKGNLLRHIKL | -0.245
FCCPICGHWFTQKGNLLRHIKL | 0.592
FRCNQCGALFTQKGNLLRHIKL | -0.921
FVCPVCGAQFTQKGNLLRHIKL | -0.813
FKCPICGRHFTQKGNLLRHIKL | -0.443
FSCEICGHSFTQKGNLLRHIKL | -1.82
FQCNICGAGFTQKGNLLRHIKL | -0.613
FICEVCGAVFTQKGNLLRHIKL | -0.847
FFCPQCGACFTQKGNLLRHIKL | 0.0368
LFCNQCGFSCTQKGNLLRHIKL | 0.875
FTCDVCGAGFTQKGNLLRHIKL | -2.17
FACNQCGHIFTQKGNLLRHIKL | -0.116
FLCEVCGALFTQKGNLLRHIKL | -1.24
FECNQCGHFFTQKGNLLRHIKL | -0.136
FVCDICGAHFTQKGNLLRHIKL | -0.982
FQCEQCGALFTQKGNLLRHIKL | -2.13
LSCEICGFCCTQKGNLLRHIKL | 0.0752
FWCEVCGAAFTQKGNLLRHIKL | -1.21
LACPICGFECTQKGNLLRHIKL | -0.0967
FNCPVCGARFTQKGNLLRHIKL | -0.297
FHCNQCGHQFTQKGNLLRHIKL | 0.0838
FQCSVCGHEFTQKGNLLRHIKL | -3.27
FYCNQCGHGFTQKGNLLRHIKL | 0.185

Sequence | log2 fold change of degron read counts
FYCNICGANFTQKGNLLRHIKL | 0.0113
FCCEVCGANFTQKGNLLRHIKL | -2.14
LWCPICGFPCTQKGNLLRHIKL | 2.81
FYCEICGAVFTQKGNLLRHIKL | -0.327
FLCPVCGAVFTQKGNLLRHIKL | 0.372
LECEICGFNCTQKGNLLRHIKL | 0.107
LNCNQCGFYCTQKGNLLRHIKL | 1.78
FQCNQCGATFTQKGNLLRHIKL | -1.7
FRCEICGRKFTQKGNLLRHIKL | -1.66
FTCDQCGAPFTQKGNLLRHIKL | -1.58
FHCPICGREFTQKGNLLRHIKL | -0.458
LECPICGFGCTQKGNLLRHIKL | 0.15
FRCEICGAQFTQKGNLLRHIKL | -1.17
FKCPICGAHFTQKGNLLRHIKL | -0.507
FGCPQCGAAFTQKGNLLRHIKL | -1.04
FACEQCGAQFTQKGNLLRHIKL | -1.66
FKCNQCGRIFTQKGNLLRHIKL | 0.137
FACPICGAWFTQKGNLLRHIKL | 0.912
LTCPICGFECTQKGNLLRHIKL | -0.0387
FWCPVCGAFFTQKGNLLRHIKL | 2
LMCPICGFQCTQKGNLLRHIKL | 0.146
FDCDQCGACFTQKGNLLRHIKL | -0.794
FACNQCGHEFTQKGNLLRHIKL | -1.15
FYCEVCGAYFTQKGNLLRHIKL | -1.25
FSCEVCGAEFTQKGNLLRHIKL | -3.18
